Laboratory results: publication PMC11995724, “Antibiotic target discovery by integrated phenotypic and activity-based profiling of electrophilic fragments” (Cell chemical biology, 2025)
The whole screen tested about 3,200 compounds, of which about 110 (3.4%) showed an effect of 50% or more. This is one part of the list.

tested on: T1, V. cholerae SAD30; design: species or system S. aureus MSSA476 (TSB) or V. cholerae SAD30 (LB); 384-well bacterial growth screen at 25 uM, OD600 relative to DMSO control; details: relative growth, OD600, LB; 25 µM; inhibitor
T1 construct: SAD30

Row | SMILES | % of control remaining
1 | N#CC(=Cc1ccc(Cl)cc1)C(=O)Nc1ccncc1 [8-K20, 3-(4-chlorophenyl)-2-cyano-N-(pyridin-4-yl)prop-2-enamide] | 74.4392%
2 | C=CC(=O)N1CCCC1c1cc(C)no1 (centres unmarked) [3-G12, 1-[2-(3-methyl-1,2-oxazol-5-yl)pyrrolidin-1-yl]prop-2-en-1-one] | 90.8546%
3 | CC(C)Oc1ccccc1C=C(C#N)C(=O)Nc1cccc(Cl)c1 [9-P20, N-(3-chlorophenyl)-2-cyano-3-[2-(propan-2-yloxy)phenyl]prop-2-enamide] | 84.0925%
4 | O=C(CCl)N1CC(Cc2ccc(F)cc2F)C1 [5-G20, 2-chloro-1-{3-[(2,4-difluorophenyl)methyl]azetidin-1-yl}ethan-1-one] | 89.2718%
5 | CN(CCNC(=O)CCl)S(=O)(=O)c1cccs1 [6-H11, 2-chloro-N-[2-(N-methylthiophene-2-sulfonamido)ethyl]acetamide] | 70.3763%
6 | COc1ccc(S(=O)(=O)N(C)C)cc1NC(=O)CCl [4-E05, 2-chloro-N-[5-(dimethylsulfamoyl)-2-methoxyphenyl]acetamide] | 103.86%
7 | CC(C)N1C(=O)C[C@H](NC(=O)CCl)[C@H]1c1ccc(Cl)c(F)c1 (racemic) [5-I11, rac-2-chloro-N-[(2R,3S)-2-(4-chloro-3-fluorophenyl)-5-oxo-1-(propan-2-yl)pyrrolidin-3-yl]acetamide] | 97.3416%
8 | C=CC(=O)N1CCC(C(=O)N2CCc3ccccc32)CC1 [1-E09, 1-[4-(2,3-dihydro-1H-indole-1-carbonyl)piperidin-1-yl]prop-2-en-1-one] | 92.5262%
9 | C=CC(=O)NC(c1ccccc1)C1CCC1 (centres unmarked) [1-G05, N-[cyclobutyl(phenyl)methyl]prop-2-enamide] | 93.8714%
10 | CC(Cl)C(=O)NC1CC=CCC1 (centres unmarked) [6-K21, 2-chloro-N-(cyclohex-3-en-1-yl)propanamide] | 96.7675%
11 | CC(Cl)C(=O)N1C2CCC1CC1(C2)CC1(F)F (centres unmarked) [6-N18, 2-chloro-1-{2',2'-difluoro-8-azaspiro[bicyclo[3.2.1]octane-3,1'-cyclopropan]-8-yl}propan-1-one] | 87.6671%
12 | N#CCCN(C(=O)CCl)c1cccc(Cl)c1 [6-A17, 2-chloro-N-(3-chlorophenyl)-N-(2-cyanoethyl)acetamide] | 105.261%
13 | C=CC(=O)NCCC(=O)N1CCN(c2ccc(C#N)cc2F)CC1 [3-D07, N-{3-[4-(4-cyano-2-fluorophenyl)piperazin-1-yl]-3-oxopropyl}prop-2-enamide] | 101.617%
14 | C=CC(=O)Nc1nn(CC(C)C)cc1Cl [2-G05, N-[4-chloro-1-(2-methylpropyl)-1H-pyrazol-3-yl]prop-2-enamide] | 93.9014%
15 | C=CC(=O)NC1(c2cccc(F)c2)CCOCC1 [1-M04, N-[4-(3-fluorophenyl)oxan-4-yl]prop-2-enamide] | 90.8819%
16 | COc1cc(C=C(C#N)C(=O)NC(C)C)cc(Cl)c1O [9-K11, 3-(3-chloro-4-hydroxy-5-methoxyphenyl)-2-cyano-N-(propan-2-yl)prop-2-enamide] | 86.8117%
17 | O=C(CCl)N(Cc1ccnn1C1CCC1)C1CC=CCC1 (centres unmarked) [5-I14, 2-chloro-N-[(1-cyclobutyl-1H-pyrazol-5-yl)methyl]-N-(cyclohex-3-en-1-yl)acetamide] | 95.3242%
18 | Cc1ccc(Sc2ccc(NC(=O)CCl)cc2)cc1C [4-G03, 2-chloro-N-{4-[(3,4-dimethylphenyl)sulfanyl]phenyl}acetamide] | 107.311%
19 | Cc1c(C#N)c(NC(=O)CCl)n(Cc2ccccc2)c1C [4-M21, N-(1-benzyl-3-cyano-4,5-dimethyl-1H-pyrrol-2-yl)-2-chloroacetamide] | 99.8922%
20 | COc1ccc(C=C(C#N)C(=O)Nc2cccc3ccccc23)cc1 [9-E10, 2-cyano-3-(4-methoxyphenyl)-N-(naphthalen-1-yl)prop-2-enamide] | 86.1319%
21 | Cc1ccc(C)n1C1CCC(NC(=O)CCl)CC1 (centres unmarked) [7-F18, 2-chloro-N-[4-(2,5-dimethyl-1H-pyrrol-1-yl)cyclohexyl]acetamide] | 79.1674%
22 | C=CC(=O)NCCC(=O)N1CCCC1c1cn(C)nc1C (centres unmarked) [3-E10, N-{3-[2-(1,3-dimethyl-1H-pyrazol-4-yl)pyrrolidin-1-yl]-3-oxopropyl}prop-2-enamide] | 102.323%

Row | SMILES | % of control remaining
23 | C=CC(=O)N(Cc1ccc(Cl)o1)C1CCCC12CCOCC2 (centres unmarked) [2-K05, N-[(5-chlorofuran-2-yl)methyl]-N-{8-oxaspiro[4.5]decan-1-yl}prop-2-enamide] | 95.1365%
24 | CN(C(=O)CCl)C1CCCCC1 [5-N07, 2-chloro-N-cyclohexyl-N-methylacetamide] | 100.368%
25 | Cc1ccc(N(C(=O)CCl)C2C=CS(=O)(=O)C2)cc1 (centres unmarked) [5-K13, 2-chloro-N-(1,1-dioxo-2,3-dihydro-1lambda6-thiophen-3-yl)-N-(4-methylphenyl)acetamide] | 94.6517%
26 | Cc1ccnc(-c2n[nH]c(C(C)NC(=O)C(C)Cl)n2)c1 (centres unmarked) [7-I10, 2-chloro-N-{1-[3-(4-methylpyridin-2-yl)-1H-1,2,4-triazol-5-yl]ethyl}propanamide] | 80.0925%
27 | O=C(CCl)N1N=C(c2ccc(Cl)cc2)CC1c1ccco1 (centres unmarked) [5-L04, 2-chloro-1-[3-(4-chlorophenyl)-5-(furan-2-yl)-4,5-dihydro-1H-pyrazol-1-yl]ethan-1-one] | 105.748%
28 | O=C(Nc1cccc(-c2nnco2)c1)N1CCSSCC1 [10-P09, N-[3-(1,3,4-oxadiazol-2-yl)phenyl]-1,2,5-dithiazepane-5-carboxamide] | 101.149%
29 | C=CC(=O)Nc1cnn2cc(C)cnc12 [1-G19, N-{6-methylpyrazolo[1,5-a]pyrimidin-3-yl}prop-2-enamide] | 89.0882%
30 | C=CC(=O)NCCC(=O)N1CCCN(c2cccnn2)CC1 [2-P16, N-{3-oxo-3-[4-(pyridazin-3-yl)-1,4-diazepan-1-yl]propyl}prop-2-enamide] | 95.7541%
31 | C=CC(=O)N(Cc1cnc(C2CC2)o1)C1CCCCC1C (centres unmarked) [1-D15, N-[(2-cyclopropyl-1,3-oxazol-5-yl)methyl]-N-(2-methylcyclohexyl)prop-2-enamide] | 85.3513%
32 | CN1C(=O)[C@H](NC(=O)CCl)COc2ccccc21 [7-D04, 2-chloro-N-[(3R)-5-methyl-4-oxo-2,3,4,5-tetrahydro-1,5-benzoxazepin-3-yl]acetamide] | 93.1769%
33 | C=CC(=O)N(Cc1ccc2cnn(C)c2c1)CC(C)(C)C [2-O05, N-(2,2-dimethylpropyl)-N-[(1-methyl-1H-indazol-6-yl)methyl]prop-2-enamide] | 100.077%
34 | CC(NC(=O)C(C#N)=Cc1ccccc1F)c1ccccc1 (centres unmarked) [8-P16, 2-cyano-3-(2-fluorophenyl)-N-(1-phenylethyl)prop-2-enamide] | 78.1101%
35 | C=CCN(Cc1ccc(Cl)s1)C(=O)CCl [5-M05, 2-chloro-N-[(5-chlorothiophen-2-yl)methyl]-N-(prop-2-en-1-yl)acetamide] | 90.1124%
36 | CC(Cl)C(=O)Nc1nc2ccccc2s1 (centres unmarked) [5-K05, N-(1,3-benzothiazol-2-yl)-2-chloropropanamide] | 101.04%
37 | CC(Cl)C(=O)NCC1COc2ccccc2O1 (centres unmarked) [4-F13, 2-chloro-N-[(2,3-dihydro-1,4-benzodioxin-2-yl)methyl]propanamide] | 97.8219%
38 | C=CC(=O)NC(C)c1nnnn1C1CC1 (centres unmarked) [1-M09, N-[1-(1-cyclopropyl-1H-1,2,3,4-tetrazol-5-yl)ethyl]prop-2-enamide] | 89.2377%
39 | CC(Cl)C(=O)N1CCCC1c1nccc(C(F)(F)F)n1 (centres unmarked) [7-B11, 2-chloro-1-{2-[4-(trifluoromethyl)pyrimidin-2-yl]pyrrolidin-1-yl}propan-1-one] | 86.7008%
40 | COc1ccc(C=C(C#N)C(=O)Nc2ccc(C)c(C)c2)cc1 [8-I05, 2-cyano-N-(3,4-dimethylphenyl)-3-(4-methoxyphenyl)prop-2-enamide] | 78.1101%
41 | CC(Cl)C(=O)N1CCN(c2oc(-c3ccco3)nc2C#N)CC1 (centres unmarked) [7-D13, 5-[4-(2-chloropropanoyl)piperazin-1-yl]-2-(furan-2-yl)-1,3-oxazole-4-carbonitrile] | 76.1275%
42 | C=CC(=O)NCc1ccc2oc(=O)[nH]c2c1 [3-D14, N-[(2-oxo-2,3-dihydro-1,3-benzoxazol-5-yl)methyl]prop-2-enamide] | 95.9713%
43 | C=CC(=O)N1CCN(S(=O)(=O)Cc2ccon2)CC1 [1-J07, 1-{4-[(1,2-oxazol-3-yl)methanesulfonyl]piperazin-1-yl}prop-2-en-1-one] | 89.2377%
44 | CC(=O)Nc1ccc(C(=O)C(C)Cl)cc1 (centres unmarked) [10-K06, N-[4-(2-chloropropanoyl)phenyl]acetamide] | 99.1233%
